Measurements taken from article PMC4336329 (PLoS ONE, 2015).
In all, about 310,000 compounds went through this assay and about 14,000 (4.5%) showed an effect of 50% or more. Effects have a minus sign here. The list shows a part of the results.

These molecules were tested against human ether-à-go-go-related gene (hERG) potassium channel (human, UniProt Q12809) (assay: primary screen, population patch clamp on CHO cells stably expressing hERG).
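Note: peak tail current of the secondary pulse compared with the same well before compound.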

Chain of human ether-à-go-go-related gene (hERG) potassium channel (Q12809 whole entry, looked up): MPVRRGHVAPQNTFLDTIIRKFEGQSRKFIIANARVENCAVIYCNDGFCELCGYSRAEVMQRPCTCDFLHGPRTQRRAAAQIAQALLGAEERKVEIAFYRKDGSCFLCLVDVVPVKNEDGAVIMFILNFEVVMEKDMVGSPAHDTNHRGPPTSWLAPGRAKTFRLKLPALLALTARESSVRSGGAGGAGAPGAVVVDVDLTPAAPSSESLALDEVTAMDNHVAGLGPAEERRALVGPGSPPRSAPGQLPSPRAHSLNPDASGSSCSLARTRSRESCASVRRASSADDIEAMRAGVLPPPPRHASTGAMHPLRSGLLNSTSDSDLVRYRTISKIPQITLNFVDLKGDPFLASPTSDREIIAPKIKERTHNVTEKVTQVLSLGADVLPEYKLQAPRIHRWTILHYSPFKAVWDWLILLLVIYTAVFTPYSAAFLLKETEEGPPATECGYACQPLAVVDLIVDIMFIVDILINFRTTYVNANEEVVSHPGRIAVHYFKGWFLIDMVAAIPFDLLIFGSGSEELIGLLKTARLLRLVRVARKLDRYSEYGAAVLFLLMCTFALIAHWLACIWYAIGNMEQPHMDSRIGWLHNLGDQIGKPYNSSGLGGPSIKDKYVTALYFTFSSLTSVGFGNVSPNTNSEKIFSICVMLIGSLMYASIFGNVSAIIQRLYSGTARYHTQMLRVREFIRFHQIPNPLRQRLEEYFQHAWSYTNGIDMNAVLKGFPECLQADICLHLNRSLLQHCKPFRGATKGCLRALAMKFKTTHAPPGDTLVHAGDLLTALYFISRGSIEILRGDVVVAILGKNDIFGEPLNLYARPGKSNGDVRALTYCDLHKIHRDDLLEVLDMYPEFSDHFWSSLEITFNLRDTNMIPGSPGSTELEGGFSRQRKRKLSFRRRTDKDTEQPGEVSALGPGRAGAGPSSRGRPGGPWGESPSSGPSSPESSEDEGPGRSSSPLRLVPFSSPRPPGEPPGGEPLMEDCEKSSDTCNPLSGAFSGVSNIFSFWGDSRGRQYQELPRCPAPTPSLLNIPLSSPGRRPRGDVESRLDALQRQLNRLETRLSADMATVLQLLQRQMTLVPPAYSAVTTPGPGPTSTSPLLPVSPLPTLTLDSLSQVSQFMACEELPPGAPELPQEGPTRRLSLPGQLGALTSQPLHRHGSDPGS

| SMILES | hERG current change (%, negative = inhibition) at 10uM [%] |
| --- | --- |
| CCOc1ccc(S(=O)(=O)N(CC)CC)cc1NC(=O)c1ccc(N2CCCC2=O)cc1 | 18.2 |
| COC(=O)CSc1nnc(-c2ccccn2)n1N | -8.2 |
| Cc1nc(NC(=O)CC(C)C)sc1-c1csc(Nc2ccc(Cl)cc2)n1 | 3.23 |
| CN1C(=O)/C(=C/c2cn(CC(=O)N3CCCCC3)c3ccccc23)NC1=S | 11.6 |
| COc1cc(C(C(=O)NC2CCCC2)N(C(=O)c2snc(C(N)=O)c2N)C2CCCC2)cc(OC)c1OC (stereo not shown) | 3.28 |
| Cc1ccc(-c2cc(Cc3ccc(F)cc3)c(=O)[nH]n2)cc1 | 13.1 |
| CC(C)/C=N\NC(=O)CCCCC(=O)N/N=C/C(C)C | 6.11 |
| Cn1c(=O)cc(SCC(=O)NCCC2=CCCCC2)c2ccc(Cl)cc21 | -8.59 |
| CC(C)CN(CC(C)C)CC(O)COc1ccc([N+](=O)[O-])cc1.Cl (stereo not shown) | -66.8 |
| CCC[C@H](N[C@@H](CCC)[C@H](O)c1ccccc1)[C@H](O)c1ccccc1 | 28.6 |
| CCCc1nnc(NC(=O)c2cc3ccccc3oc2=O)s1 | -7.49 |
| CCCC[C@@H]1CN=C(N)N1CCc1cc(C(F)(F)F)cc(C(F)(F)F)c1 | -20.2 |
| COc1cc(/C=C(/C#N)c2ccc(F)cc2)ccc1Oc1ccc([N+](=O)[O-])cn1 | 11 |
| Cc1cc(C)nc(NC(=NCCc2c[nH]c3ccccc23)NC(=O)Nc2cccc([N+](=O)[O-])c2)n1 | -1.33 |
| CCCn1c(NC(=O)CCS(=O)(=O)c2ccc(C)cc2)nc2ccccc21 | -24.2 |
| O=C(CCl)N1N=C(c2ccco2)CC1c1ccco1 (stereo not shown) | 14 |
| CCC(C)NC(=O)CNC(=S)N(Cc1ccc(F)cc1)C1CCCCC1 (stereo not shown) | 6.9 |
| COc1cc([N+](=O)[O-])ccc1NC(=O)Nn1cnnc1 | 9.89 |
| COCOc1ccc(C=O)cc1OCOC | 14.6 |
| COc1ccc(CNC(=O)CSc2nnc3nc(C)cc(C)n23)cc1OC | 0.315 |
| Cc1c(C)c2ccc(OCc3ccc(C(=O)O)o3)c(C)c2oc1=O | 4.38 |
| CC(NC(=O)COc1ccccc1)C(=O)NC1=NCCS1 (stereo not shown) | 0.963 |

| SMILES | hERG current change (%, negative = inhibition) at 10uM [%] |
| --- | --- |
| COc1cccc(N(CC(=O)Nc2ccccc2C(=O)N2CCCC2)S(C)(=O)=O)c1 | 19.1 |
| CC(C)[C@H](NC(N)=O)C(=O)Nc1ccc(Oc2ccccc2)cc1 | 9.16 |
| COc1cccc(N2C(=O)C3CC=C(Cl)CC3C2=O)c1 (stereo not shown) | -5.03 |
| O=C(c1ccc2c(c1)OCCO2)C1CCN(S(=O)(=O)c2ccccc2F)CC1 | 5.32 |
| NC(=S)N1CCCc2ccccc21 | -3.03 |
| CC1CCCCN1S(=O)(=O)c1ccc(C(=O)Nc2nnc(-c3cccs3)o2)cc1 (stereo not shown) | -8.87 |
| S=c1[nH]nc(COc2ccccc2)n1C1CCCCC1 | 24.3 |
| Oc1ccc(Br)cc1-c1nc2cnccn2c1NC1CCCCC1 | 1.07 |
| COc1ccccc1N1CCN(C(=O)CSc2nnc(NC(=O)C3CCC3)s2)CC1 | -4.25 |
| Cc1ccc(S(=O)(=O)NC(=O)COc2cc(C)ccc2C(C)C)cc1 | 10.1 |
| COC(=O)CCN(C(=O)c1cc([N+](=O)[O-])cc([N+](=O)[O-])c1)c1ccccn1 | 17.6 |
| CNS(=O)(=O)c1cccc(C(=O)OCC(=O)NCc2ccccc2)c1 | 8.3 |
| CC(=O)Nc1cc[n+](C(C)C(=O)c2ccc(Cl)cc2)cc1.[Cl-] (stereo not shown) | 25.4 |
| CCOc1ccc(NS(=O)(=O)c2ccc(C(=O)NC3CCN(Cc4ccccc4)CC3)cc2)cc1 | 3.07 |
| Cc1ccc(CNC(=O)CN2C(=O)c3ccccc3S2(=O)=O)cc1 | -14.1 |
| Nn1c(Cc2cccc3ccccc23)nnc1SCc1ccccc1Cl | -9.47 |
| O=C(C(=O)N1CCN(c2ccccc2)CC1)c1cn(CC(=O)N2CCCCCC2)c2ccccc12 | -6.07 |
| CCCn1c(SCC(=O)Nc2nnc(C)s2)nnc1C1CC1 | 6.04 |
| COC(=O)c1ccc(/C=C/C(=O)OCC(=O)Nc2ncc(Cl)cc2Cl)cc1 | -19.9 |
| O=C(O)c1cccc(CSc2n[nH]c(-c3ccc(Cl)cc3Cl)n2)c1 | 2.18 |
| CCn1nc(C)c(CNC(=O)Nc2ccc3c(c2)OCO3)c1C | 0.832 |
